Measurements as given in PubChem BioAssay (NCATS).
Some of the results follow. Further columns of the screen follow, without active or inactive calls. Most of these compounds were active or inconclusive in the main read-out, so they are no random draw. The note in brackets gives the kind of curve behind each potency; many fits are weak.

Test: qHTS Assay for Lipid Storage Modulators (AID 1519)
Conditions: Drosophila S3 cells, BODIPY lipid droplet/cell ratio, laser cytometry, cells loaded with oleic acid
Summary of the method: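 Cells seeded at 5,000 per well were treated with compounds over a concentration series and loaded with oleic acid (400 uM, as added). Lipid droplet fluorescence (488 nm excitation, 500-530 nm channel) was read by laser-scanning cytometry and normalized to 20 uM Triacsin C.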

[1] = measured here: cell count channel max response
[2] = measured here: cell number channel AC50
[3] = measured here: lipid (BODIPY) channel AC50
[4] = measured here: lipid channel max response
Tags describe the fitted curve by direction and shape.

SMILES | max response [1] | AC50 [2] | AC50 [3] | max response [4]
Cc1ccccc1-c1cncnc1NCc1cccnc1 | 43% | 2.51 µM [rising, full curve] | 2.24 µM [rising, full curve] | 53.8%
CC[C@H](C)N(C)C(=O)c1cc2ccccc2c(-c2ccccc2Cl)n1 | 49.2% | 12.6 µM [rising, partial curve, poor fit] | 12.6 µM [rising, partial curve, poor fit] | 59.4%
CN(C)C(=O)c1ccc(-c2nccc(N(C)Cc3ccco3)n2)cc1 | 43.9% | 14.1 µM [rising, partial curve, poor fit] | 15.8 µM [rising, partial curve, poor fit] | 48.6%
COc1ccc(CNc2cc(-c3ccccc3C)ncn2)c(OC)c1 | 20.6% | 1.58 µM [rising, full curve, poor fit] | 1.41 µM [rising, full curve, poor fit] | 29.8%
CC(=O)NCCc1ccc(O)c(O)c1 | 7.31% | 0.0141 µM [falling, full curve, poor fit] | 0.0141 µM [falling, full curve, poor fit] | 5.4%
COc1ccc(Oc2ncc3ncc(=O)n(CCC#N)c3n2)cc1 | 24.3% | 0.112 µM [rising, full curve, poor fit] | 0.0501 µM [rising, full curve] | 33.3%
CC(=O)NCCNc1ncnc2ccc(-c3ccccc3C#N)cc12 | 26% | 1.12 µM [rising, full curve, poor fit] | 1.12 µM [rising, full curve] | 32.2%
O=c1c(-c2cc(F)cc(F)c2)nc2cnc(N3CCNCC3)nc2n1Cc1ccc(F)cc1 | -65.3% | 39.8 µM [falling, single point] | 4.47 µM [rising, single point] | -99.8%
CCCCCCCCCCCCC[N+](C)(C)Cc1ccccc1 | -41.4% | 14.1 µM [falling, partial curve, poor fit] | 7.94 µM [falling, full curve] | -86%
CN(C)c1ncc2nc(-c3cccs3)c(=O)n(C)c2n1 | 23.9% | 3.16 µM [rising, full curve, poor fit] | 2.82 µM [rising, full curve, poor fit] | 29.6%
Cc1cccc(CNc2ncncc2-c2ccccc2CN(C)C)c1 | 35% | 3.98 µM [rising, full curve] | 3.98 µM [rising, full curve] | 41.6%
CN(Cc1ccco1)c1ncncc1-c1cccc(NS(C)(=O)=O)c1 | 38.1% | 1.41 µM [rising, full curve] | 1.12 µM [rising, full curve] | 46.8%
COc1cccc(Nc2ncc3nc(CCc4ccccc4)c(=O)n(C4CC4)c3n2)c1 | -2.94% | 0.282 µM [rising, full curve] | 0.112 µM [rising, full curve] | -6.32%
CS(=O)(=O)Nc1cccc(-c2nccc(NCc3cccs3)n2)c1 | 33.6% | 1.12 µM [rising, full curve] | 1.41 µM [rising, full curve, poor fit] | 41.9%
COc1ccc2[nH]cc(CCNc3cc(-c4c(C)noc4C)ncn3)c2c1 | 24.6% | 0.794 µM [rising, full curve] | 0.631 µM [rising, full curve] | 31.7%
O=S(=O)(c1ccccc1)N1CCC2(CC1)CN(C(c1ccccc1)c1ccccc1)C2 | 34.3% | 11.2 µM [rising, partial curve] | 14.1 µM [rising, partial curve] | 46.4%
COc1ccc(-n2c(=O)c(CCc3ccccc3)nc3cnc(N4CCNCC4)nc32)cc1 | 34% | 11.2 µM [rising, partial curve] | 11.2 µM [rising, partial curve] | 42.9%
N#CCCn1c(=O)c(CCc2ccccc2)nc2cnc(Oc3cccc(Cl)c3)nc21 | 10% | 0.708 µM [rising, partial curve] | 0.355 µM [rising, partial curve] | 15.6%
CN(C)c1ncc2nc(CCc3ccccc3)c(=O)n(CCC#N)c2n1 | 36% | 5.62 µM [rising, full curve, poor fit] | 3.98 µM [rising, full curve, poor fit] | 44.7%
CN(C)c1ncnc2ccc(-c3ccccc3C(F)(F)F)cc12 | 17.1% | 0.0708 µM [rising, full curve] | 0.0316 µM [rising, full curve, poor fit] | 14.1%

SMILES | max response [1] | AC50 [2] | AC50 [3] | max response [4]
COc1ccccc1-c1nc(Nc2ccncc2)c2ccccc2n1 | 30% | 0.501 µM [rising, full curve] | 0.501 µM [rising, full curve] | 37%
COCCn1c(=O)c(-c2cc(F)cc(F)c2)nc2cnc(Oc3ccccc3)nc21 | 22.2% | 2 µM [rising, full curve, poor fit] | 1.26 µM [rising, full curve, poor fit] | 30.4%
CS(=O)(=O)Nc1cccc(-c2cc(NCc3cccs3)ncn2)c1 | 40.2% | 5.01 µM [rising, partial curve] | 1.41 µM [rising, full curve] | 45.4%
COc1ccc(-c2nc3cnc(N(C)C)nc3n(C[C@H]3CCCO3)c2=O)cc1 | -17.3% | 0.708 µM [rising, partial curve] | 0.794 µM [rising, partial curve] | -20.5%
C#C[C@]1(O)CC[C@H]2[C@H]3CCC4=Cc5oncc5C[C@]4(C)[C@@H]3CC[C@]21C | 59.8% | 2 µM [rising, full curve] | 5.01 µM [rising, full curve] | 71.8%
COc1ncc2nc(CCc3ccccc3)c(=O)n(CCc3ccccc3)c2n1 | 5.42% | 0.0891 µM [rising, full curve, poor fit] | 0.112 µM [rising, full curve] | 11.8%
CC(N)(Cc1ccc(O)cc1)C(=O)O (stereo not given) | -44.8% | 7.94 µM [falling, full curve, poor fit] | 7.94 µM [falling, full curve, poor fit] | -49%
Cc1cnc(CNc2cc(-c3ccccc3C(F)(F)F)ncn2)cn1 | 37.9% | 1.41 µM [rising, full curve] | 1.26 µM [rising, full curve] | 44.8%
Cc1nc2cnc(Oc3ccccc3)nc2n(CCc2ccccc2)c1=O | 17.9% | 0.0398 µM [rising, partial curve] | 0.0398 µM [rising, full curve] | 24.7%
c1cncc(-c2nc(NCc3cccs3)c3ccccc3n2)c1 | 21.3% | 0.251 µM [rising, full curve] | 0.398 µM [rising, full curve] | 30.4%
COc1ccc(-n2c(=O)c(-c3ccc(Cl)cc3)nc3cncnc32)cc1 | 20.4% | 1.78 µM [rising, partial curve] | 0.224 µM [rising, full curve] | 31.8%
CC(C)=CCc1c2c(c3occ(-c4ccc(O)cc4)c(=O)c3c1O)C=CC(C)(C)O2 | -57.2% | 31.6 µM [falling, single point] | 28.2 µM [falling, partial curve] | -80.3%
Cn1c(=O)c(-c2cccs2)nc2cnc(Oc3ccccc3)nc21 | 27.6% | 1 µM [rising, partial curve] | 2.82 µM [falling, partial curve, poor fit] | -71.4%
COc1cccc(-c2nc(N(C)Cc3ccco3)c3ccccc3n2)c1 | 18.5% | 0.447 µM [rising, full curve] | 0.708 µM [rising, full curve] | 25.1%
C=C1C(=O)C23C(O)C1CCC2[C@]12COC3(O)C(O)C1C(C)(C)CC[C@H]2O (stereo not given in full) | -47.6% | 6.31 µM [falling, partial curve] | 25.1 µM [falling, partial curve] | -111%
COCCNc1nc(-c2ccc(C(=O)N(C)C)cc2)nc2ccccc12 | 31.7% | 1.12 µM [rising, full curve] | 0.631 µM [rising, full curve, poor fit] | 41.1%
N#CCCn1c(=O)c(-c2cc(F)cc(F)c2)nc2cnc(OCc3ccccc3)nc21 | -1.83% | 2.51 µM [rising, partial curve, poor fit] | 1 µM [rising, partial curve, poor fit] | 0.543%
CC(=O)c1ccc[nH]1 | 8.16% | 7.08 µM [rising, single point] | 6.31 µM [rising, single point] | 15.3%
O=C(c1cc(C(F)(F)F)cc(C(F)(F)F)c1)N1CCC2(CC1)CN(c1ccccn1)C2 | 4.02% | 3.98 µM [rising, partial curve, poor fit] | 5.01 µM [rising, partial curve, poor fit] | -1.21%
CN(C)C(=O)c1ccc(-c2nccc(NCc3ccccc3)n2)cc1 | 9.72% | 0.1 µM [rising, full curve, poor fit] | 0.141 µM [rising, full curve, poor fit] | 14.7%
